Source: PubChem BioAssay AID1347428 (National Center for Advancing Translational Sciences (NCATS), 2020)
The whole screen tested about 91,000 compounds, of which about 290 (0.32%) were called active. The inconclusive results got no clear call from the source; some entries with a clear call stand among them for comparison. Calls come from the whole dose curve; as a rule, active = well fitted inhibition curve with a large enough effect; inconclusive = small, poorly fitted or top-dose-only effect; inactive = no such curve, though single readings can be large or run the other way. Where the call is inconclusive, the potency comes from a doubtful curve fit.

Target: Single-stranded DNA cytosine deaminase (Homo sapiens) (UniProt Q9GZX7)
Chain of UniProt Q9GZX7 (Q9GZX7 whole entry, looked up): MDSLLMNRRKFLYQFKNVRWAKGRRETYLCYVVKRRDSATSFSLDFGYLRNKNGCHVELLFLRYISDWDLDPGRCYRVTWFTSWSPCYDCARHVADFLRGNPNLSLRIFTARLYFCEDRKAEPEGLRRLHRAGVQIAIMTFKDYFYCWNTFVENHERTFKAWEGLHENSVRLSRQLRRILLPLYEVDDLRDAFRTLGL
Assay: Primary qHTS assay for inhibitors of Activation Induced Cytidine Deaminase (AID): AID signal; note: nearly all actives have a fitted effect of over 25% in size
Details: AID deamination FRET fluorescence, UDG-coupled, 4 h; series mostly up to 115 µM
Potency is the fitted concentration of half-maximal effect; tags give direction and shape of the fitted curve.

Compound | Potency
CC(=O)c1cccc(NC(c2ccc(F)cc2)c2nnc(-c3ccccc3)o2)c1 (centres undefined) | inconclusive: 3.55 µM [inhibitor, full curve, poor fit]
O=C(C1CC1)N(Cc1ccc2c(c1)CN(S(=O)(=O)c1cc(F)ccc1F)CCO2)c1ccccc1 | inactive
Cc1ccccc1Cn1c(=O)n(CCc2ccccc2)c(=O)c2ccccc21 | inconclusive: 31.6 µM [inhibitor, partial curve]
CCOc1ccc(/C=C/C(=O)c2cccc(Br)c2)cc1OC | inactive
Nc1cc(Cl)ccc1OCc1ccccc1 | inactive
Cc1ccsc1CN(CC1CCCO1)C(=O)COc1ccccc1 (centres undefined) | inconclusive: 89.1 µM [inhibitor, partial curve, poor fit]
COC(=O)c1ccc(Cn2c(=O)cc(C(F)(F)F)c3c(C)nn(C)c32)cc1 | inconclusive: 100 µM [inhibitor, single point]
Cc1cccc(-c2nc(Cn3c(=O)cc(-c4ccccc4)c4c(C)nn(C)c43)c(C)o2)c1 | inconclusive: 22.4 µM [inhibitor, full curve, poor fit]
COC(=O)COc1ccc(-c2nnc(Nc3ccc(OC)cc3)c3ccccc23)cc1 | inactive
O=C(NCCc1c[nH]c2ccc(Cl)cc12)c1c(F)cccc1F | inactive
CC(=O)c1ccc(S(=O)(=O)N2CCN(C(=O)c3cc(C)n(C(C)C)c3C)CC2)cc1 | inactive
COc1ccc2c(C)c(CCC(=O)Nc3ccc(Br)c(C)c3)c(=O)oc2c1 | inactive
CCNc1c(NC(=O)Nc2cc(OC)cc(OC)c2)c(=O)oc2ccccc12 | inactive
Cc1cc(C)c(S(=O)(=O)N2CCN(Cc3cccc4cccnc34)CC2)c(C)c1 | inconclusive: 44.7 µM [inhibitor, full curve, poor fit]
CCc1nonc1NC(=O)c1oc2ccccc2c1C | inactive
CC(C)(C)c1ccc(O)c(NC(=O)CC(C(=O)O)c2ccc(F)cc2)c1 (centres undefined) | inactive
Cc1ccc(N(Cc2cccs2)C(=O)c2ccc(Br)o2)cc1 | inconclusive: 44.7 µM [inhibitor, partial curve]
Cn1nc(C(=O)NCc2ccc(Cl)cc2)c2c1-c1ccccc1SC2 | inconclusive: 14.1 µM [inhibitor, full curve, poor fit]
Cc1cccc(CSc2nc3c(c(=O)[nH]2)C(c2cccc(O)c2)CC(=O)N3)c1 (centres undefined) | inconclusive: 2.82 µM [inhibitor, full curve]
COc1ccc(CCNC(=O)C2CCCN(c3nc4c(C)cc(C)cc4s3)C2)cc1OC (centres undefined) | inconclusive: 50.1 µM [inhibitor, partial curve, poor fit]
CSc1ccc2c(c1)C(N1CCN(C)CC1)Cc1ccccc1S2 (centres undefined) | inconclusive: 56.2 µM [inhibitor, partial curve, poor fit]
Cc1ccc(CNC(=O)C(CC(C)C)NC(=O)c2ccccc2C)cc1 (centres undefined) | inactive

Compound | Potency
CN(Cc1ccccc1)c1ncnc2onc(-c3ccc(F)cc3)c12 | inconclusive: 79.4 µM [inhibitor, single point]
COc1ccc2c(C)nc(Nc3nc4ccccc4c(=O)[nH]3)nc2c1 | inconclusive: 44.7 µM [inhibitor, partial curve, poor fit]
Cc1cc(C)nc(SCc2nc3ccc(Cl)cn3c2Br)n1 | inconclusive: 89.1 µM [inhibitor, partial curve, poor fit]
CSc1cccc(N2CC(C(=O)O)CC2=O)c1 (centres undefined) | inactive
COc1ccc(CN2CCCN(C(=O)c3cn(C)nc3-c3ccc4c(c3)OCCCO4)CC2)cc1 | inactive
CCc1noc(-c2ccc(N3CCCCC3C)c([N+](=O)[O-])c2)n1 (centres undefined) | inconclusive: 39.8 µM [inhibitor, full curve, poor fit]
O=C(Nc1nnc(S(=O)(=O)Nc2ccccc2)s1)c1ccccc1Cl | inconclusive: 20 µM [inhibitor, full curve, poor fit]
Fc1ccc(C2=NC(C(F)(F)F)(C(F)(F)F)N=C3C=CC=CN32)cc1 | inactive
C=Cc1ccc(Cn2c(C(=O)O)c(CNCc3ccccc3)c3ccc(C)cc32)cc1 | inconclusive: 31.6 µM [inhibitor, full curve, poor fit]
COc1ccc(NC(=O)c2ccc3c(=O)n4nc(Nc5cccc(Cl)c5C)sc4nc3c2)cc1 | inconclusive: 39.8 µM [inhibitor, partial curve, poor fit]
Cc1ccc(C)c(Nc2nn3c(=O)c4ccc(C(=O)NCc5cccs5)cc4nc3s2)c1 | active: 39.8 µM
COc1cccc(N2CCN(c3ncnc4onc(-c5ccc(Cl)cc5)c34)CC2)c1 | inconclusive: 35.5 µM [inhibitor, partial curve]
Cc1cccc(N2CCN(C(=O)c3nn(C)c4c3CS(=O)(=O)c3ccccc3-4)CC2C)c1 (centres undefined) | inconclusive: 10 µM [inhibitor, full curve, poor fit]
O=C(Nc1cccc(S(=O)(=O)NC2=NCCC2)c1)C1(c2ccccc2)CCCC1 | inactive
CC1CCN(c2nc(-c3ccc(Br)cc3)nc3ccccc23)CC1 | inconclusive: 39.8 µM [inhibitor, partial curve, poor fit]
CN(C)c1ccc(C(=O)NCc2ccc3c(c2)CCN3C(=O)c2ccccc2)cc1 | inactive
CSc1ccc(CNC(=O)Cn2ccc3cc(S(=O)(=O)N4CCCC4)ccc32)cc1 | inactive
Cc1ccn2c(Nc3ccccc3C)c(-c3ccccc3)nc2c1 | inconclusive: 39.8 µM [inhibitor, single point]
Cn1c(=O)n(C)c2cc(N3CCCCC3)c(NC(=O)c3c(F)cccc3F)cc21 | inactive
COc1ccc(N(C)C(=O)C2CCN(S(=O)(=O)c3cc(Br)cc4c3N(C(C)=O)CC4)CC2)cc1 | inconclusive: 79.4 µM [inhibitor, partial curve, poor fit]
Cc1ccccc1Nc1c(-c2ccc(N3CCOCC3)cc2)nc2ccc(Cl)cn12 | inconclusive: 39.8 µM [inhibitor, full curve, poor fit]
CCCCN(C)S(=O)(=O)c1cc(-c2cc(C)no2)ccc1C | inconclusive: 70.8 µM [inhibitor, partial curve]
